From the supplement of paper PMC9911699 come the findings set out here.

This is one part of the list.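 How the source made its calls: active = average curve height above 101 Omnilog units; inactive = average height at or below 101.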 Single values are uncertain, as repeats are few or missing.

The test system of assay [1] is Acinetobacter baumannii AB6870155. The assay can be described thus: respiration area under curve on compound as sole carbon source (Biolog PM, 48 h) (arbitrary Omnilog units x h (AUC)); higher = more carbon source utilisation / respiration. As to conditions: Biolog inoculating fluid, temperature: 37 °C.
In assay [2] the test system is Klebsiella pneumoniae KP6870155. Described as above. To be noted: Biolog inoculating fluid, temperature: 37 °C.

In the case of `NCCCCN` [Putrescine], the “respiration area under curve” value in assay [1] is active: 13000; in assay [2], active: 12300.
In the case of `OC[C@@H](O)C(O)[C@H](O)CO` [D-Arabitol], the “respiration area under curve” value in assay [1] is inactive: 1610; in assay [2], active: 12300.
Taken in the same sequence, the figures for `O=C(O)/C=C/C(=O)O` [Fumaric Acid] were active: 11500 and active: 10700.
Taken in the same sequence, the figures for `C[N+](C)(C)CC(O)CC(=O)[O-]` (racemic) [D,L-Carnitine] were inactive: 2460 and inactive: 3200.
On the same counts, the results for `CC(=O)N[C@H]1[C@@H](O)[C@H](O)[C@@H](CO)O[C@H]1O` [N-Acetyl-Beta-D-Mannosamine] are inactive: 2500 and active: 8940.
Regarding `OC[C@H]1O[C@@H]2O[C@H]3[C@H](O)[C@@H](O)[C@@H](O[C@H]4[C@H](O)[C@@H](O)[C@@H](O[C@H]5[C@H](O)[C@@H](O)[C@@H](O[C@H]6[C@H](O)[C@@H](O)[C@@H](O[C@H]7[C@H](O)[C@@H](O)[C@@H](O[C@H]8[C@H](O)[C@@H](O)[C@@H](O[C@H]1[C@H](O)[C@H]2O)O[C@@H]8CO)O[C@@H]7CO)O[C@@H]6CO)O[C@@H]5CO)O[C@@H]4CO)O[C@@H]3CO` [Beta-Cyclodextrin], the figures for the “respiration area under curve” value in assay [1] and in assay [2] were inactive: 1930 and inactive: 4370, respectively.
Taken in the same sequence, the figures for `CCC(C)N` (stereo not drawn) [Sec-Butylamine] were inactive: 1500 and inactive: 4320.
On the same counts, the results for `O=C(O)c1ccc(O)cc1` [4-Hydroxy Benzoic Acid] are active: 10100 and active: 9350.
On the same counts, the results for `CC(=O)N[C@@H](CO)[C@@H](O)[C@H](O)[C@H](O)CO` [N-Acetyl-D-Glucosaminitol] are inactive: 1730 and inactive: 3930.
